# Reference: the supplement of paper PMC8728848
# The list shows a part of the results.
# B1: Pwp2 (Candida glabrata) (protein)
# chain: MGSSHHHHHHSSGLVPRGSHMASKNPVELNNVCTFPNDYGRIPGFTVLVGRLGLLISASDYKELLRYPGAFLIATQDTMTTSPNFELTGFPFFTGLYGLTVFPLDLLVELRGYFVPPNSGQYTFTLSDSDDAAIIFLGNPSAFPCGDLQNWPKPSEEDITVTDHLFPSRTLYLIEGVAYPMRIAYYNGIGAGRLNAAFIDPSGTRHTNWEGYIWQYDPCSTCTYS
# Key:
# Assay in all cases: glycan array binding signal (z-score within array); higher = stronger binding
# Conditions in all cases: glycan notation: IUPAC condensed, linker removed
# [1] = target: Fuc(a1-2)[Gal(a1-4)]Gal(b1-4)GlcNAc
# Procedure, shortened: (§1)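 Arrays were curated from the Consortium for Functional Glycomics database, 3228 in total, and kept only where the protein sequence was available. Binding is expressed as a within-array Z-score. This score was averaged across arrays of the same protein sequence at different concentrations or buffers and across linkers, and negative values can be read as non-binding.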
# [2] = target: Fuc(a1-2)[GalNAc(a1-3)]Gal
# Procedure, shortened: as §1
# [3] = target: Fuc(a1-2)[GalNAc(a1-3)]Gal(b1-3)GalNAc(a1-3)[Fuc(a1-2)]Gal(b1-4)GlcNAc
# Procedure, shortened: as §1
# [4] = target: Fuc(a1-2)[GalNAc(a1-3)]Gal(b1-3)GalNAc(b1-3)Gal(a1-4)Gal(b1-4)Glc
# Procedure, shortened: as §1
# [5] = target: Fuc(a1-2)[GalNAc(a1-3)]Gal(b1-3)GlcNAc
# Procedure, shortened: as §1
# [6] = target: Fuc(a1-2)[GalNAc(a1-3)]Gal(b1-3)GlcNAc(b1-2)Man(a1-3)[Fuc(a1-2)[GalNAc(a1-3)]Gal(b1-3)GlcNAc(b1-2)Man(a1-6)]Man(b1-4)GlcNAc(b1-4)GlcNAc
# Procedure, shortened: as §1
# [7] = target: Fuc(a1-2)[GalNAc(a1-3)]Gal(b1-3)GlcNAc(b1-2)Man(a1-3)[Fuc(a1-2)[GalNAc(a1-3)]Gal(b1-3)GlcNAc(b1-2)Man(a1-6)]Man(b1-4)GlcNAc(b1-4)[Fuc(a1-6)]GlcNAc
# Procedure, shortened: as §1
# [8] = target: Fuc(a1-2)[GalNAc(a1-3)]Gal(b1-3)GlcNAc(b1-3)GalNAc
# Procedure, shortened: as §1
# [9] = target: Fuc(a1-2)[GalNAc(a1-3)]Gal(b1-3)GlcNAc(b1-6)GalNAc
# Procedure, shortened: as §1
# [10] = target: Fuc(a1-2)[GalNAc(a1-3)]Gal(b1-4)Glc
# Procedure, shortened: as §1
# [11] = target: Fuc(a1-2)[GalNAc(a1-3)]Gal(b1-4)GlcNAc
# Procedure, shortened: as §1
# [12] = target: Fuc(a1-2)[GalNAc(a1-3)]Gal(b1-4)GlcNAc(b1-2)Man
# Procedure, shortened: as §1
# [13] = target: Fuc(a1-2)[GalNAc(a1-3)]Gal(b1-4)GlcNAc(b1-2)Man(a1-3)[Fuc(a1-2)[GalNAc(a1-3)]Gal(b1-4)GlcNAc(b1-2)Man(a1-6)]Man(b1-4)GlcNAc(b1-4)GlcNAc
# Procedure, shortened: as §1
# [14] = target: Fuc(a1-2)[GalNAc(a1-3)]Gal(b1-4)GlcNAc(b1-2)Man(a1-3)[Fuc(a1-2)[GalNAc(a1-3)]Gal(b1-4)GlcNAc(b1-2)Man(a1-6)]Man(b1-4)GlcNAc(b1-4)[Fuc(a1-6)]GlcNAc
# Procedure, shortened: as §1
# [15] = target: Fuc(a1-2)[GalNAc(a1-3)]Gal(b1-4)GlcNAc(b1-3)Gal(b1-4)GlcNAc
# Procedure, shortened: as §1
# [16] = target: Fuc(a1-2)[GalNAc(a1-3)]Gal(b1-4)GlcNAc(b1-3)Gal(b1-4)GlcNAc(b1-3)Gal(b1-4)GlcNAc
# Procedure, shortened: as §1
# [17] = target: Fuc(a1-2)[GalNAc(a1-3)]Gal(b1-4)GlcNAc(b1-3)GalNAc
# Procedure, shortened: as §1
# [18] = target: Fuc(a1-2)[GalNAc(a1-3)]Gal(b1-4)GlcNAc(b1-3)[Fuc(a1-2)[GalNAc(a1-3)]Gal(b1-4)GlcNAc(b1-6)]GalNAc
# Procedure, shortened: as §1
# [19] = target: Fuc(a1-2)[GalNAc(a1-3)]Gal(b1-4)GlcNAc(b1-6)GalNAc
# Procedure, shortened: as §1
# [20] = target: Fuc(a1-2)[GalNAc(a1-3)]Gal(b1-4)[Fuc(a1-3)]GlcNAc
# Procedure, shortened: as §1
# [21] = target: Fuc(a1-2)[GalNAc(a1-3)]Gal(b1-4)[Fuc(a1-3)]GlcNAc(b1-3)GalNAc
# Procedure, shortened: as §1
# [22] = target: Fuc(a1-2)[GalNAc(a1-4)]Gal(b1-4)GlcNAc
# Procedure, shortened: as §1
# [23] = target: Fuc(a1-2)[GalNAc(b1-3)]Gal
# Procedure, shortened: as §1
binder,measurement,setting,value
B1,glycan array binding signal (z-score),[1],-0.494
same,glycan array binding signal (z-score),[2],-0.745
same,glycan array binding signal (z-score),[3],0.144
same,glycan array binding signal (z-score),[4],-0.386
same,glycan array binding signal (z-score),[5],-0.368
same,glycan array binding signal (z-score),[6],-0.258
same,glycan array binding signal (z-score),[7],-0.465
same,glycan array binding signal (z-score),[8],-0.08
same,glycan array binding signal (z-score),[9],-0.396
same,glycan array binding signal (z-score),[10],-0.579
same,glycan array binding signal (z-score),[11],-0.475
same,glycan array binding signal (z-score),[12],-0.575
same,glycan array binding signal (z-score),[13],-0.472
same,glycan array binding signal (z-score),[14],-0.413
same,glycan array binding signal (z-score),[15],-0.413
same,glycan array binding signal (z-score),[16],-0.392
same,glycan array binding signal (z-score),[17],0.995
same,glycan array binding signal (z-score),[18],-0.119
same,glycan array binding signal (z-score),[19],-0.33
same,glycan array binding signal (z-score),[20],-1.2
same,glycan array binding signal (z-score),[21],0.067
same,glycan array binding signal (z-score),[22],-0.499
same,glycan array binding signal (z-score),[23],-0.597
